# Out of some 200,000 compounds screened, about 4,500 (2.2%) were called active. The inconclusive results got no clear call from the source; some entries with a clear call stand among them for comparison. The call rests on the fitted dose curve; in most records, active means well fitted inhibition curve with a large enough effect; inconclusive means small, poorly fitted or top-dose-only effect, or effect the other way; inactive means flat fitted curve, though single readings scatter. Where the call is inconclusive, the potency comes from a doubtful curve fit.
# Target: Cruzipain (Trypanosoma cruzi) (UniProt P25779)
# Chain of UniProt P25779 (P25779 whole entry, looked up): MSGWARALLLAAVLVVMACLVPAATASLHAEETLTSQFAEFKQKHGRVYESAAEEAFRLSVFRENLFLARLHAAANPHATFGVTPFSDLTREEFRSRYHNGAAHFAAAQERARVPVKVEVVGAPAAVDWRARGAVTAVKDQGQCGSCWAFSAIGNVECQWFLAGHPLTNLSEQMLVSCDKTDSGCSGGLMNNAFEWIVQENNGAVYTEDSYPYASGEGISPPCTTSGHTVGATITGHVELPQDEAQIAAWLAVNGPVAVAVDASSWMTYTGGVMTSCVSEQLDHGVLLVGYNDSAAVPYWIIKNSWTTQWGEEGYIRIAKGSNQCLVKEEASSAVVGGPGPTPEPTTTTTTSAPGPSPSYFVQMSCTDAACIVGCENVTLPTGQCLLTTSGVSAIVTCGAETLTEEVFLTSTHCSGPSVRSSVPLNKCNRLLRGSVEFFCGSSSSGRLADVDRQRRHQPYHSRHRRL
# Test: qHTS Assay for Promiscuous and Specific Inhibitors of Cruzain (without detergent); further: nearly all actives have a fitted effect of over 40% in size;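 on max response, negative = inhibition: plate controls were enzyme without inhibitor for no effect and buffer without enzyme for full effect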
# Conditions: purified cruzain, Z-FR-AMC fluorescence, no detergent
# Summary of the method: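 Detergent-free condition (0.00005% Triton X-100) in acetate buffer pH 5.5 with DTT. 1.5 nM enzyme and compound were pre-mixed 15 min, then 2 uM Z-FR-AMC substrate added; reaction progress from fluorescence change between first and third reads (60 s).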
# Potency means the concentration at half of the fitted maximal effect; tags describe the fitted curve by direction and shape.
Structure (SMILES),"max response, negative = inhibition",Potency
CCc1ccccc1Nc1nn2c(=O)c3ccc(C(=O)NCCCOC(C)C)cc3nc2s1,inactive: 5.47%,
COc1ccc(Cn2cc(S(=O)(=O)c3ccc(Cl)cc3)c(=O)c3cc4c(cc32)OCO4)cc1,,"inconclusive: 31.6 µM [inhibitor, single point]"
CC(=O)c1cccc(NC(=O)COc2cc3oc(=O)c(CC(C)O)c(C)c3cc2Cl)c1 (stereo unspecified),,"inconclusive: 39.8 µM [activator, single point]"
CCOC(=O)c1sc(NC(=O)c2cccc(S(=O)(=O)N3c4ccccc4CC3C)c2)cc1C (stereo unspecified),,"inconclusive: 25.1 µM [inhibitor, single point]"
CCCCc1c(C)c2cc(C)ccc2[nH]c1=O,,"inconclusive: 10 µM [inhibitor, partial curve]"
CCOC(=O)C(C(C)=O)C(c1ccc(OCCC(C)C)cc1)C(C(C)=O)C(=O)OCC (stereo unspecified),,"inconclusive: 31.6 µM [activator, single point]"
COc1ccc(C(NC(=O)CNC(C)=O)C(=O)Nc2ccc(C(C)C)cc2)cc1 (stereo unspecified),,"inconclusive: 39.8 µM [activator, single point]"
CCn1c(CN2CCC(C)CC2)nc2cc(NC(=O)COc3ccc(Cl)c(C)c3)ccc21,inactive: -9.39%,
COc1cc(OC)c(NC(=O)CCc2c(C)nc3ncnn3c2C)cc1Cl,inactive: -2.49%,
COc1ccc(NC(=O)Cn2c(=O)n(Cc3ccccc3OC)c(=O)c3cccnc32)cc1Cl,inactive: 1.43%,
Nc1nc(NCc2ccccc2)nc(Nc2cccc(F)c2)c1[N+](=O)[O-],,active: 31.6 µM
COc1ccc(OC)c(NC(=O)C2Cc3ccccc3CN2S(=O)(=O)c2ccc(F)cc2)c1 (stereo unspecified),,"inconclusive: 25.1 µM [inhibitor, single point]"
COc1ccc2c(c1)O[C@@H](c1cccc(C(F)(F)F)c1)[C@H](OC(=O)NC1CCCC1)C2=O,inactive: -3.85%,
O=c1c2cc(-c3ccccc3)sc2ncn1-n1cccc1,,"inconclusive: 39.8 µM [inhibitor, single point]"
CC12C(=O)N(c3ccc(OC(=O)c4ccco4)cc3)C(=O)C1C1c3ccccc3C2c2ccccc21 (stereo unspecified),,"inconclusive: 39.8 µM [inhibitor, single point]"
Cn1nnc2c(NCc3ccc(Cl)cc3)ncnc21,inactive: -5.2%,
O=C(Nc1ccc(Cl)cc1)NC1CCCc2ccccc21 (stereo unspecified),,"inconclusive: 39.8 µM [inhibitor, single point]"
CC(C)COC(=O)OCN1C(=O)CN(CCN2CC(=O)N(COC(=O)OCC(C)C)C(=O)C2)CC1=O,,"inconclusive: 25.1 µM [activator, partial curve]"
COc1ccc(C2(Nc3cccc(F)c3)C(=O)c3ccccc3C2=O)cc1,,"inconclusive: 25.1 µM [inhibitor, single point]"
CCC(=O)N1CCc2cc(Br)cc(S(=O)(=O)N3CCN(C(=O)c4ccco4)CC3)c21,,"inconclusive: 39.8 µM [activator, single point]"
COCCNC(=O)C1CCN(C(=O)c2cc3sccc3n2Cc2ccc(Cl)cc2)CC1,,"inconclusive: 25.1 µM [activator, partial curve]"

Structure (SMILES),"max response, negative = inhibition",Potency
COc1cc2c(cc1OC)C1=NC(=O)CN1C(SCc1ccccc1C)=N2,,"inconclusive: 39.8 µM [activator, single point]"
COc1ccccc1/C=N/NC(=O)c1ccc(-c2ccccc2)cc1,,"inconclusive: 31.6 µM [inhibitor, single point]"
Cc1cc(NS(=O)(=O)c2ccc(Nc3nc(-c4sc(N)nc4C)cs3)cc2)no1,,"inconclusive: 31.6 µM [inhibitor, single point]"
C=Cn1ccnc1P(=S)(c1cc(N(CC)CC)ns1)c1nccn1C=C,,"inconclusive: 31.6 µM [activator, partial curve]"
COc1ccc(N2CCN(Cc3cc(=O)oc4c3ccc3ccccc34)CC2)cc1,,"inconclusive: 39.8 µM [inhibitor, single point]"
COc1ccc2nc(-c3ccco3)c(-c3ccco3)nc2c1,,active: 3.98 µM
O=C(CCN1C(=O)c2ccccc2C1=O)Nc1ccc(-c2nc3ccccc3s2)cc1,,active: 25.1 µM
N#C/C(=C(/O)COC(=O)Cc1c[nH]c2ccccc12)c1nc2ccccc2[nH]1,,"inconclusive: 39.8 µM [inhibitor, single point]"
CCCC(=O)Nc1ccc(OC[C@@H](O)CNC(C)C)c(C(C)=O)c1,inactive: -1.81%,
COc1cc(/C=N/NC(=O)CC23CC4CC(CC(C4)C2)C3)cc(Br)c1OCC(=O)N(C)C,,"inconclusive: 25.1 µM [activator, single point]"
CCCN1CCN(c2nnc(-n3cccc3C(=O)Nc3cc(Cl)ccc3C)s2)CC1,inactive: -8.21%,
O=C(NCc1ccc2c(c1)OCO2)c1cccc(C(=O)NCc2ccc3c(c2)OCO3)c1,inactive: -0.0991%,
CCOC(=O)c1ccccc1NC(=O)c1cc(S(=O)(=O)N2CCOCC2)ccc1F,,"inconclusive: 39.8 µM [activator, single point]"
COC(=O)c1scc(-c2ccc(C)cc2)c1S(=O)(=O)Nc1cc(Cl)c(OC)cc1OC,,"inconclusive: 39.8 µM [inhibitor, single point]"
CCOc1ccccc1-c1nc(-c2ccc(NC(=O)Cc3ccc(OC)cc3)cc2)no1,,active: 7.94 µM
CCCn1c(CCC(=O)Nc2cc(C(=O)OC)cc(C(=O)OC)c2)nc2cccnc21,inactive: 10%,
N=c1scc(-c2ccccc2)n1/N=C/c1ccco1,,"inconclusive: 31.6 µM [inhibitor, single point]"
CCOC(=O)c1ccc(N2C(=O)c3[nH]nc(-c4ccc(C)cc4)c3C2c2cccs2)cc1 (stereo unspecified),,"inconclusive: 39.8 µM [inhibitor, single point]"
CCNC(=O)COC(=O)CNC(=O)c1cc(Cl)cc([N+](=O)[O-])c1,,active: 7.94 µM
COC(=O)c1ccc(N2CCN(S(=O)(=O)c3ccc(Br)cc3)CC2)c([N+](=O)[O-])c1,,"inconclusive: 39.8 µM [inhibitor, single point]"

# Reference: PubChem BioAssay AID1476 (National Center for Advancing Translational Sciences (NCATS), 2009)
